# From publication PMC11995724, “Antibiotic target discovery by integrated phenotypic and activity-based profiling of electrophilic fragments” (Cell chemical biology, 2025)
# Out of some 3,200 compounds screened, about 75 (2%) showed an effect of 50% or more. This is one part of the list.
# Tested on: T1, S. aureus MSSA476
# T1 construct: MSSA476
# Design: species or system S. aureus MSSA476 (TSB) or V. cholerae SAD30 (LB); 384-well bacterial growth screen at 25 uM, OD600 relative to DMSO control
# Settings: relative growth, OD600, TSB; 25 µM; inhibitor
row,Structure (SMILES),% of control remaining [%]
1,"C=CC(=O)N(C)Cc1noc(C2CC2)n1 [2-N17, N-[(5-cyclopropyl-1,2,4-oxadiazol-3-yl)methyl]-N-methylprop-2-enamide]",123.586
2,"C=CC(=O)Nc1ccc(C(C)Sc2ccccc2)cc1 (stereo not drawn) [1-C21, N-{4-[1-(phenylsulfanyl)ethyl]phenyl}prop-2-enamide]",128.703
3,"O=C(CCl)N1CC2CCC(C1)O2 [6-M20, 2-chloro-1-{8-oxa-3-azabicyclo[3.2.1]octan-3-yl}ethan-1-one]",96.2927
4,"C=CC(=O)N(C)CC(=O)N1CCC2(CC1)CC2c1nnc(C(C)C)o1 (stereo not drawn) [2-N22, N-methyl-N-(2-oxo-2-{1-[5-(propan-2-yl)-1,3,4-oxadiazol-2-yl]-6-azaspiro[2.5]octan-6-yl}ethyl)prop-2-enamide]",98.8686
5,"C=CC(=O)NC(C)c1ccc(-n2ccnn2)cc1 (stereo not drawn) [3-B13, N-{1-[4-(1H-1,2,3-triazol-1-yl)phenyl]ethyl}prop-2-enamide]",131.998
6,"C=CC(=O)Nc1cccc(C(=O)C(F)F)c1 [1-G14, N-[3-(2,2-difluoroacetyl)phenyl]prop-2-enamide]",107.253
7,"COc1ccc(Cl)c2c1CCCC2N(C)C(=O)C(C)Cl (stereo not drawn) [7-P09, 2-chloro-N-(8-chloro-5-methoxy-1,2,3,4-tetrahydronaphthalen-1-yl)-N-methylpropanamide]",109.576
8,"CC(Cl)C(=O)Nc1ccc2c(c1)ncn2-c1ccccc1 (stereo not drawn) [6-N13, 2-chloro-N-(1-phenyl-1H-1,3-benzodiazol-5-yl)propanamide]",87.7561
9,"O=C(CCl)N1CCN(C2CCCN(C3CCOCC3)C2=O)CC1 (stereo not drawn) [5-E18, 3-[4-(2-chloroacetyl)piperazin-1-yl]-1-(oxan-4-yl)piperidin-2-one]",98.3607
10,"CCn1cc(C2CN(C(=O)C(C)Cl)CCO2)cn1 (stereo not drawn) [7-G08, 2-chloro-1-[2-(1-ethyl-1H-pyrazol-4-yl)morpholin-4-yl]propan-1-one]",84.7724
11,"C=CC(=O)Nc1cnn(C2CCCC2)c1 [3-O21, N-(1-cyclopentyl-1H-pyrazol-4-yl)prop-2-enamide]",87.4184
12,"CCCn1c(C)cc(C=C(C#N)C(=O)Nc2ccccc2)c1C [8-H05, 2-cyano-3-(2,5-dimethyl-1-propyl-1H-pyrrol-3-yl)-N-phenylprop-2-enamide]",108.216
13,"N#CC(=Cc1cccc(F)c1F)C(N)=O [9-A03, 2-cyano-3-(2,3-difluorophenyl)prop-2-enamide]",107.865
14,"CC(Cl)C(=O)NC(CC1CCCCC1)c1ncccn1 (stereo not drawn) [7-H13, 2-chloro-N-[2-cyclohexyl-1-(pyrimidin-2-yl)ethyl]propanamide]",99.2151
15,"C=CC(=O)N1CCC(C(=O)N[C@H]2CCO[C@H](c3ccccn3)C2)CC1 (racemic) [2-G15, rac-1-(prop-2-enoyl)-N-[(2R,4R)-2-(pyridin-2-yl)oxan-4-yl]piperidine-4-carboxamide]",110.357
16,"COc1ccc(CN2CCN(C(=O)CCl)CC2)cc1.Cl [5-A15, 2-chloro-1-{4-[(4-methoxyphenyl)methyl]piperazin-1-yl}ethan-1-one hydrochloride]",98.725
17,"Cn1ccnc1C(=O)CCl [10-C15, 2-chloro-1-(1-methyl-1H-imidazol-2-yl)ethan-1-one]",93.75
18,"C=CC(=O)NC(c1ccc(F)cc1)c1nccn1C (stereo not drawn) [2-N09, N-[(4-fluorophenyl)(1-methyl-1H-imidazol-2-yl)methyl]prop-2-enamide]",98.1723
19,"C=CC(=O)NCCCc1conc1C [2-N13, N-[3-(3-methyl-1,2-oxazol-4-yl)propyl]prop-2-enamide]",106.179
20,"CC1=C(c2ccco2)CN(C(=O)C(C)Cl)CC1 (stereo not drawn) [6-D15, 2-chloro-1-[5-(furan-2-yl)-4-methyl-1,2,3,6-tetrahydropyridin-1-yl]propan-1-one]",87.4146
21,"C=CC(=O)NCc1cccc(C(C)(F)F)c1 [3-O22, N-{[3-(1,1-difluoroethyl)phenyl]methyl}prop-2-enamide]",99.6082
22,"NC(=O)CSc1ccccc1NC(=O)CCl [4-A15, 2-{[2-(2-chloroacetamido)phenyl]sulfanyl}acetamide]",128.442
23,"Cc1ccc(-n2c(C)cc(C=C(C#N)C(=O)N3CCCCC3)c2C)cc1 [9-O21, 3-[2,5-dimethyl-1-(4-methylphenyl)-1H-pyrrol-3-yl]-2-(piperidine-1-carbonyl)prop-2-enenitrile]",96.779
24,"O=C(CCl)NCCc1ccn(C2CCCC2)n1 [7-L20, 2-chloro-N-[2-(1-cyclopentyl-1H-pyrazol-3-yl)ethyl]acetamide]",86.9702
25,"C=CC(=O)N1CCN(C(C)c2nc(C)no2)CC1 (stereo not drawn) [3-M11, 1-{4-[1-(3-methyl-1,2,4-oxadiazol-5-yl)ethyl]piperazin-1-yl}prop-2-en-1-one]",105.877
26,"N#CC(=Cc1ccc([N+](=O)[O-])cc1)C(=O)Nc1cccc2ncccc12 [9-K21, 2-cyano-3-(4-nitrophenyl)-N-(quinolin-5-yl)prop-2-enamide]",92.8839
27,"CN(C(=O)CCl)C(c1ccccc1)c1ccccc1 [5-H06, 2-chloro-N-(diphenylmethyl)-N-methylacetamide]",85.6102
28,"CC(Cl)C(=O)Nc1ccccc1-c1ccccc1 (stereo not drawn) [4-G14, N-{[1,1'-biphenyl]-2-yl}-2-chloropropanamide]",133.016
29,"C=CC(=O)NCCc1cscn1 [2-G08, N-[2-(1,3-thiazol-4-yl)ethyl]prop-2-enamide]",88.0766
30,"c1nc(N2CCSSCC2)c2c3c(sc2n1)CCCC3 [10-M22, 3-(1,2,5-dithiazepan-5-yl)-8-thia-4,6-diazatricyclo[7.4.0.0,2,7]trideca-1(9),2,4,6-tetraene]",155.938
